This passage reports cytotoxicity call and growth inhibition call results from the antibiotic and cytotoxicity screens of Wong et al. (2023).

This is one part of the list.

Assay [1] concerns HSkMC (human skeletal muscle cells). Briefly: cytotoxicity call (relative viability < 0.9). As to conditions: 10 µM.
In assay [2] the test system is HepG2. Briefly: cytotoxicity call (relative viability < 0.9). As to conditions: 10 µM.
The test system of assay [3] is S. aureus RN4220. As to the kind of experiment: growth inhibition call (relative growth <= 0.2). To be noted: 50 µM.

As for `COCC#Cc1ccc2c(c1)O[C@H](CN(C)S(=O)(=O)c1ccc(OC)cc1)[C@@H](C)CN([C@@H](C)CO)S2(=O)=O`, the cytotoxicity call in assay [1] and in assay [2] was “inactive” each time. Moreover, the growth inhibition call in assay [3] is “inactive”.
Turning to `O=C(CN1CCOCC1)N[C@@H]1CC[C@H](CCNC(=O)Nc2cc(F)ccc2F)O[C@H]1CO`, the cytotoxicity call in assay [1] and in assay [2] was “inactive” in each case. Also, in assay [3], the growth inhibition call is “inactive”.
In the case of `CC(C)(Oc1ccc(C(=O)c2ccc(Cl)cc2)cc1)C(=O)O`, the cytotoxicity call in assay [1] and in assay [2] was “inactive” each time. For the same compound, in assay [3], the growth inhibition call is “inactive”.
Take `CC(=O)OC[C@]12[C@H](OC(=O)c3ccccc3)C[C@@H]3[C@@H](OC(C)=O)[C@]1(OC3(C)C)[C@H](C)C[C@H](OC(C)=O)[C@@H]2OC(C)=O`: the cytotoxicity call in assay [1] and in assay [2] was “inactive” each time. In addition, the growth inhibition call in assay [3] was “inactive”.
Consider `CCC[C@@H](O)C#Cc1cnc2c(c1)C(=O)N([C@H](C)CO)C[C@H](C)[C@H](CN(C)C(=O)Nc1ccccc1)O2`, for which the cytotoxicity call in assay [1] and in assay [2] was “inactive” in each case. Besides, the growth inhibition call in assay [3] was “inactive”.
As to `COc1ccc(NC(=O)N(C)C[C@@H]2Oc3ncc(C#CC(C)C)cc3C(=O)N([C@@H](C)CO)C[C@@H]2C)cc1`, the cytotoxicity call in assay [1] and in assay [2] was “inactive” throughout. Also, the growth inhibition call in assay [3] is “inactive”.
As for `C[C@@H]1CN([C@H](C)CO)C(=O)c2cc(NC(=O)NC3CCCCC3)ccc2O[C@@H](C)CCCCO[C@@H]1CN(C)C(=O)c1ccncc1`, the cytotoxicity call in assay [1] and in assay [2] was “inactive” each time. The growth inhibition call in assay [3] is “inactive”.
In the case of `CC(C)c1cc(=O)nc[nH]1`, the cytotoxicity call in assay [1] and in assay [2] was “inactive” each time. In addition, in assay [3], the growth inhibition call was “inactive”.
Consider `C[C@@H]1CN([C@H](C)CO)C(=O)c2cccc(NC(=O)c3ccncc3)c2O[C@@H]1CN(C)S(=O)(=O)c1ccc(F)cc1`, for which the cytotoxicity call in assay [1] and in assay [2] was “inactive” in each case. The growth inhibition call in assay [3] was “inactive”.
On to `C[C@@H]1CN([C@@H](C)CO)S(=O)(=O)c2ccc(C#Cc3ccc(F)cc3)cc2O[C@H]1CN(C)S(C)(=O)=O`, for which the cytotoxicity call in assay [1] and in assay [2] was “inactive” each time. Further, the growth inhibition call in assay [3] was “inactive”.
In the case of `C[C@@H]1CN([C@@H](C)CO)C(=O)c2cc(NC(=O)c3ccncc3)ccc2O[C@H]1CN(C)Cc1ccc(C(=O)O)cc1`, the cytotoxicity call in assay [1] and in assay [2] was “inactive” each time. Also, the growth inhibition call in assay [3] is “inactive”.
`O=[N+]([O-])c1ccc(/C=C/CN(C/C=C/c2ccc([N+](=O)[O-])cc2)CCCCNS(=O)(=O)c2cccc3cnccc23)cc1`: the cytotoxicity call in assay [1] and in assay [2] was “inactive” in each case. Moreover, the growth inhibition call in assay [3] is “inactive”.
Regarding `C[C@H](CO)N1C[C@H](C)[C@@H](CN(C)C(=O)Nc2ccc(F)cc2)OCCCC[C@H](C)Oc2ccc(NS(=O)(=O)c3ccc(F)cc3)cc2C1=O`, the cytotoxicity call in assay [1] and in assay [2] was “inactive” each time. Besides, the growth inhibition call in assay [3] is “inactive”.
Regarding `O=C(CCCCCNC(=O)OCc1ccc(CO[C@H]2C[C@@H](C3CCCCC3)C=C(C(=O)N3CCN(Cc4ccccc4)CC3)O2)cc1)NO`, the cytotoxicity call in assay [1] and in assay [2] was “inactive” throughout. Moreover, the growth inhibition call in assay [3] is “inactive”.
As for `C[C@H]1CN([C@@H](C)CO)C(=O)c2cc(NC(=O)CCC(F)(F)F)ccc2O[C@H]1CN(C)S(C)(=O)=O`, the cytotoxicity call in assay [1] and in assay [2] was “inactive” each time. In assay [3], the growth inhibition call was “inactive”.
Consider `O=C(O)CCC(=O)N[C@H]1CCCCNC1=O`, for which the cytotoxicity call in assay [1] and in assay [2] was “inactive” in each case. Further, the growth inhibition call in assay [3] was “inactive”.
For the compound `Cc1ccc(S(=O)(=O)N(C)C[C@@H]2Oc3ccc(NS(=O)(=O)c4cn(C)cn4)cc3CC(=O)N([C@@H](C)CO)C[C@H]2C)cc1`, the cytotoxicity call in assay [1] and in assay [2] was “inactive” each time. The growth inhibition call in assay [3] is “inactive”.
Turning to `O=C(C[C@H]1C=C[C@@H](NC(=O)C2CC2)[C@H](CO)O1)NCCCN1CCOCC1`, the cytotoxicity call in assay [1] and in assay [2] was “inactive” throughout. For the same compound, the growth inhibition call in assay [3] is “inactive”.
Regarding `CN1CCCC1CCOC(C)(c1ccccc1)c1ccc(Cl)cc1.O=C(O)C=CC(=O)O` (stereo unspecified), the cytotoxicity call in assay [1] was “inactive”. Further, the cytotoxicity call in assay [2] is “active”. In addition, in assay [3], the growth inhibition call is “inactive”.
For the compound `C[C@H](CO)N1C[C@H](C)[C@H](CN(C)Cc2ccccc2)Oc2c(NC(=O)Nc3cccc4ccccc34)cccc2C1=O`, the cytotoxicity call in assay [1] and in assay [2] was “inactive” each time. Moreover, the growth inhibition call in assay [3] was “inactive”.
Regarding `C[C@@H]1CCCCO[C@@H](CN(C)C(=O)CCC(F)(F)F)[C@H](C)CN([C@H](C)CO)C(=O)c2cc(NS(=O)(=O)c3cccs3)ccc2O1`, the cytotoxicity call in assay [1] and in assay [2] was “inactive” each time. Besides, the growth inhibition call in assay [3] is “inactive”.
`Clc1ccc(COC(Cn2ccnc2)c2ccc(Cl)cc2Cl)c(Cl)c1.O=[N+]([O-])O` (stereo unspecified): the cytotoxicity call in assay [1] and in assay [2] was “inactive” in each case. The growth inhibition call in assay [3] was “inactive”.
As for `COc1ccc(S(=O)(=O)N(C)C[C@H]2OCCCC[C@@H](C)Oc3ccc(NC(=O)Nc4ccc5c(c4)OCO5)cc3C(=O)N([C@@H](C)CO)C[C@@H]2C)cc1`, the cytotoxicity call in assay [1] was “inactive”. Besides, in assay [2], the cytotoxicity call is “active”. Further, the growth inhibition call in assay [3] is “inactive”.
With `COc1ccc(NC(=O)Nc2ccc3c(c2)C(=O)N([C@@H](C)CO)C[C@@H](C)[C@@H](CN(C)S(=O)(=O)c2ccc(C)cc2)OCCCC[C@@H](C)O3)cc1`, the cytotoxicity call in assay [1] and in assay [2] was “inactive” throughout. Further, the growth inhibition call in assay [3] was “inactive”.
As to `C[C@H](CO)N1C[C@H](C)[C@@H](CN(C)Cc2ccc(-c3ccccc3)cc2)Oc2ccc(NC(=O)c3ccncc3)cc2CC1=O`, the cytotoxicity call in assay [1] and in assay [2] was “inactive” in each case. Further, in assay [3], the growth inhibition call is “inactive”.
`C[C@@H]1CCCCO[C@@H](CN(C)Cc2ccc(C(=O)O)cc2)[C@@H](C)CN([C@H](C)CO)C(=O)c2cc(NS(=O)(=O)c3cccs3)ccc2O1`: the cytotoxicity call in assay [1] and in assay [2] was “inactive” throughout. For the same compound, in assay [3], the growth inhibition call is “inactive”.
`Cc1ccc(S(=O)(=O)Nc2cccc3c2O[C@@H](CN(C)S(=O)(=O)c2cccs2)[C@@H](C)CN([C@H](C)CO)C3=O)cc1`: the cytotoxicity call in assay [1] and in assay [2] was “inactive” throughout. The growth inhibition call in assay [3] was “inactive”.
